Publication PMC4336329 (PLoS ONE, 2015)
Screen size: about 310,000 compounds; about 2,200 (0.71%) showed an effect of 50% or more. Effects have a minus sign here. Some of the results follow.

The molecules below were run against human ether-à-go-go-related gene (hERG) potassium channel (human, UniProt Q12809) (assay: primary screen, population patch clamp on CHO cells stably expressing hERG).
Chain of human ether-à-go-go-related gene (hERG) potassium channel (Q12809 whole entry, looked up): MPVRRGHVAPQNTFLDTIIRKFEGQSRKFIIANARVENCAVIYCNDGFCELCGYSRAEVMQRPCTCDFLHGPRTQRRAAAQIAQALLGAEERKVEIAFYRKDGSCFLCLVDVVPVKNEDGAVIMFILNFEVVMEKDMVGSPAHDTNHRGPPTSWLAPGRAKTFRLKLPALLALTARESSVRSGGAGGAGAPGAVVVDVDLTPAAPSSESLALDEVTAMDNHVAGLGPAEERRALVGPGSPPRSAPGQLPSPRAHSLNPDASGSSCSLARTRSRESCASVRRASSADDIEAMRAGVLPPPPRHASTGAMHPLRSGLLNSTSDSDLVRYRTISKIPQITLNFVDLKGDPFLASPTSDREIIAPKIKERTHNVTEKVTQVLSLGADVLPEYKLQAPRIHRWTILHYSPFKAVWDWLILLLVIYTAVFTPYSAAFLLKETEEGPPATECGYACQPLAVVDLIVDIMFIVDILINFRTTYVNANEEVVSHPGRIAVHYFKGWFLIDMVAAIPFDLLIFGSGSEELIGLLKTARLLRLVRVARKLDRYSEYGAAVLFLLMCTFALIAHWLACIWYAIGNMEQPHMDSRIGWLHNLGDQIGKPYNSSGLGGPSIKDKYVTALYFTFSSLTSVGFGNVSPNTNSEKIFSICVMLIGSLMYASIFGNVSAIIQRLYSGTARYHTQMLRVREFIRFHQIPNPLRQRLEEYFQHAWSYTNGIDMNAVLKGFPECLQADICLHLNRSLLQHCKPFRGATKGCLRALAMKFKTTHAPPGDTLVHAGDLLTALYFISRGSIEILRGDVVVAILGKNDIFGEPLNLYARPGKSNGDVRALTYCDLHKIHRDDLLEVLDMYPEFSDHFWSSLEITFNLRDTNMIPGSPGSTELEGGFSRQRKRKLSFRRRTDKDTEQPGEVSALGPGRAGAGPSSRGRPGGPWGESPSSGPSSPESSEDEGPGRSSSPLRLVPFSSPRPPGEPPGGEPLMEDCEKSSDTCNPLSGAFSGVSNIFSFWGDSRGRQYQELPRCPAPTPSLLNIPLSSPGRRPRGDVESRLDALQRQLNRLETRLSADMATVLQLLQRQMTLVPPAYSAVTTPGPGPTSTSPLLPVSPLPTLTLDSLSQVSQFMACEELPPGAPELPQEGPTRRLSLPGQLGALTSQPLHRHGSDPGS

In order of rising “hERG current change (%, negative = inhibition) at 1uM” value:
1. O=C(CNC(=O)/C(=C\c1ccccc1)NC(=O)c1ccc(Br)cc1)OCc1ccccc1  -68.1%
2. Cc1cc(C)nc(SCc2nnc(SCc3ccc([N+](=O)[O-])cc3)n2Cc2ccco2)n1  -57.5%
3. O=C(CN1CCN(c2ccc(C(F)(F)F)cn2)CC1)NCc1ccc2c(c1)OCO2  -49.1%
4. COc1ccc(-n2nc(C(=O)NCC(=O)NCCCN3CC(C)CC(C)C3)c3ccccc3c2=O)cc1Cl (centres unmarked)  -44.5%
5. O=C(O)Cn1c(SC2CCCCC2)nc2ccccc21  -7.66%
6. CCOC(=O)C1CCN(C(=O)CSc2nnc(-c3ccco3)n2-c2ccccc2)CC1  -2.31%
7. Cc1ccsc1C(=O)Nc1ccccc1N1CCOCC1  -1.92%
8. COc1ccc(NC(=O)C2CCCN2S(=O)(=O)c2ccc(C)cc2)cc1 (centres unmarked)  -0.967%
9. O=C(O)c1cc[c]([Hg][Cl])cc1  -0.162%
10. Cc1ccc(-n2ncc3c(N4CCCC4)ncnc32)c(C)c1  0.641%
11. CCc1ccccc1NC(=O)C1CCCN1S(=O)(=O)c1ccc2c(c1)n(C)c(=O)c(=O)n2C (centres unmarked)  1.13%
12. CCCN(CCC)c1nc2ccccc2nc1C(C#N)C(=O)OC(C)COC (centres unmarked)  2.92%
13. C=CCO/N=C/C1C(=O)CC(C)(C)CC1=O  3.48%
14. COC(=O)c1ccc(NC(=O)CSc2nc3ccccc3c(=O)[nH]2)cc1  3.69%
15. Cc1onc(-c2ccccc2Cl)c1C(=O)NCc1nnnn1-c1ccc(F)cc1  3.87%
16. COc1ccc(OC)c(C2c3[nH]c4ccccc4c3C[C@H]3C(=O)N(C4CC4)CC(=O)N23)c1 (some centres unmarked)  4.18%
17. COc1ccc(/C=N\NC(=O)c2ccccc2)cc1COc1ccc(F)cc1  4.81%
18. CCN(CC)CCCN=Cc1c(O)n(-c2cccc(C)c2C)c(=O)[nH]c1=O  6.07%
19. O=C(O)CC(c1ccccc1)n1cnnn1 (centres unmarked)  6.34%
20. COc1ccc(OCC(=O)N/N=C(\C)c2ccc(OC)cc2)cc1  6.37%
21. COc1ccc(S(=O)(=O)Nc2ccc3oc4ncccc4c(=O)c3c2)cc1OC  7.32%
22. Cc1cc(C)c(NC(=O)c2ccoc2C)c(C)c1  7.46%
23. O=C(NC1CCCC1)c1ccc(CN2CCOCC2)cc1  8.29%
24. COC(=O)c1cc(Br)ccc1NC(=O)CSCc1c(C)noc1C  8.44%
25. O=C(COc1ccc(Cl)cc1)c1ccc(O)cc1O  8.53%
26. CCC(C)(NC(=O)c1ccccc1)C(=O)O (centres unmarked)  8.79%
27. Cc1cccc(C)c1NC(=O)C1CCCN1S(=O)(=O)c1ccc2c(c1)n(C)c(=O)c(=O)n2C (centres unmarked)  8.92%
28. CCCn1c(=O)c(C(=O)N/N=C/c2ccc(F)cc2)c(O)c2ccccc21  8.96%
29. S=C(NCCc1ccccc1)Nc1ccc(Cl)cc1Cl  9.49%
30. COC/C=C/C1=CC2=CC(=O)C(C)(OC(=O)c3cnc4ccccc4n3)C(=O)C2=CN1C1CC1 (centres unmarked)  9.57%
31. C=CCNC(=O)/C(=C/c1ccccc1OCC)NC(=O)c1ccccc1  9.73%
32. CC(C)CC(C(=O)OCC(=O)Nc1ncc(Cl)cc1Cl)N1C(=O)c2ccccc2C1=O (centres unmarked)  9.79%
33. Nc1ccccc1C#Cc1ccc([N+](=O)[O-])cc1  10.5%
34. Cc1ccc(CC(=O)NNC(=O)c2ccncc2)cc1C  10.6%
35. COC(=O)Nc1nnc(-c2ccncc2)s1  10.6%
36. O=C(CSc1cccc(C(F)(F)F)c1)NC(=O)c1ccccc1  10.7%
37. CC(Sc1nnnn1C)C(=O)NC(=O)NC1CCCCC1 (centres unmarked)  10.7%
38. O=C(CSc1nc2ccccc2s1)NNC(=S)Nc1ccc(Br)cc1  11.3%
39. C=CCn1c(-c2cccc(Cl)c2)n[nH]c1=S  11.4%
40. Cc1cccc(NC(=O)C2CCCN2C(=O)OCc2ccccc2)c1 (centres unmarked)  11.5%
41. COc1ccc(S(=O)(=O)CC(=O)c2cc(C)c(O)c(C)c2)cc1  12%
42. COc1cc(OC)cc(C(=O)N[C@H](C(=O)Nc2cccc(S(=O)(=O)N3CCCC3)c2)C(C)C)c1  12.3%
43. CCCn1c(=O)c2ccccc2n2c(SCC(=O)Nc3cc(C)on3)nnc12  12.4%
44. CCN(CC)C(=O)C(C(=O)c1cccc([N+](=O)[O-])c1)n1cc(Cl)ccc1=O (centres unmarked)  12.4%
45. COc1cc(C=Nc2ccccc2C(=O)Nc2ccccc2)cc(OC)c1OC  12.4%
46. CCN(CC(=O)Nc1ccc2c(c1)OCCO2)S(=O)(=O)c1ccc(F)cc1  13.1%
47. COc1ccc(CCNC(=O)CN(c2ccccc2OC)S(C)(=O)=O)cc1OC  13.5%
48. N#CCC(=O)N/N=C/c1ccc(SCC(=O)Nc2ccccc2)o1  15.1%
49. O=C(O)CCCCCN1C(=O)/C(=C\c2ccc(-c3ccc(Cl)cc3)o2)SC1=S  15.6%
50. Cc1c(OCC(F)(F)F)ccnc1CS(=O)c1nc2ccccc2[nH]1 (centres unmarked)  16.6%
51. S=C(NCc1ccc(Cl)cc1)NN1CCOCC1  16.8%
52. COC(=O)C1=C(c2cccc(C#N)c2)C[C@@H]2CC[C@H]1N2C(=O)N1CCc2cc(OC)c(OC)cc2C1  17.1%
53. O=[N+]([O-])c1ccc(CSc2ncnc3c2ncn3[C@@H]2O[C@H](CO)[C@@H](O)[C@H]2O)cc1  17.4%
54. Cc1cc(SCC(=O)N/N=C/c2ccco2)nc2ccccc12  17.6%
55. CCCNC(=O)C(Cc1ccccc1F)NC(=O)c1ccccn1 (centres unmarked)  18.2%
56. CSc1ccccc1NC(=O)c1cc(-c2cccnc2)nc2ccc(Br)cc12  19%
